Laboratory results taken from patent publication US20260263442A1, “METHOD FOR TREATING L-DOPA-INDUCED DYSKINESIA USING BEFIRADOL” (Neurolixis, Inc., priority 2023, published 2026).

System: patients with moderate to severe L-DOPA-induced dyskinesia (LID) in Parkinson's disease
Test: Adverse events, Phase 2a study of NLX-112 versus placebo

Cc1ccc(CNCC2(F)CCN(C(=O)c3ccc(F)c(Cl)c3)CC2)nc1 [NLX-112]
0 n (%): AE action taken with study drug: Drug Interrupted, subjects n (%) (Full analysis set, N = 18) | AE severity: Death, subjects n (%) (Full analysis set, N = 18) | AE severity: Life-Threatening, subjects n (%) (Full analysis set, N = 18) | AE severity: Severe, subjects n (%) (Full analysis set, N = 18) | Alopecia, subjects n (%) (Full analysis set, N = 18) | Any AE leading to death, subjects n (%) (Full analysis set, N = 18) | Any SAE, subjects n (%) (Full analysis set, N = 18) | COVID-19, subjects n (%) (Full analysis set, N = 18) | Depression, subjects n (%) (Full analysis set, N = 18) | Dry eye, subjects n (%) (Full analysis set, N = 18) | Eye pain, subjects n (%) (Full analysis set, N = 18) | Hypertension, subjects n (%) (Full analysis set, N = 18) | Illusion, subjects n (%) (Full analysis set, N = 18)
0: AE action taken with study drug: Drug Interrupted, events m (Full analysis set, N = 18) | AE severity: Death, events m (Full analysis set, N = 18) | AE severity: Life-Threatening, events m (Full analysis set, N = 18) | AE severity: Severe, events m (Full analysis set, N = 18) | Alopecia, events m (Full analysis set, N = 18) | Any AE leading to death, events m (Full analysis set, N = 18) | Any SAE, events m (Full analysis set, N = 18) | COVID-19, events m (Full analysis set, N = 18) | Depression, events m (Full analysis set, N = 18) | Dry eye, events m (Full analysis set, N = 18) | Eye pain, events m (Full analysis set, N = 18) | Hypertension, events m (Full analysis set, N = 18) | Illusion, events m (Full analysis set, N = 18)
11 (61%) n (%): AE causality: Unlikely Related, subjects n (%) (Full analysis set, N = 18)
2: Back pain, events m (Full analysis set, N = 18) | Cataract operation, events m (Full analysis set, N = 18) | Dissociation, events m (Full analysis set, N = 18) | Dizziness, events m (Full analysis set, N = 18) | Dyskinesia, events m (Full analysis set, N = 18) | Fatigue, events m (Full analysis set, N = 18) | Insomnia, events m (Full analysis set, N = 18)
24: AE causality: Unlikely Related, events m (Full analysis set, N = 18)
3: Any AE leading to withdrawal from study, events m (Full analysis set, N = 18) | Ear and labyrinth disorders (system organ class), events m (Full analysis set, N = 18) | Eye disorders (system organ class), events m (Full analysis set, N = 18) | Fall, events m (Full analysis set, N = 18) | General disorders and administration site conditions (system organ class), events m (Full analysis set, N = 18)
1 (5.6%) n (%): Any AE leading to withdrawal from study, subjects n (%) (Full analysis set, N = 18) | Apathy, subjects n (%) (Full analysis set, N = 18) | Arthralgia, subjects n (%) (Full analysis set, N = 18) | Binocular eye movement disorder, subjects n (%) (Full analysis set, N = 18) | Cardiac disorders (system organ class), subjects n (%) (Full analysis set, N = 18) | Cataract operation, subjects n (%) (Full analysis set, N = 18) | Condition aggravated, subjects n (%) (Full analysis set, N = 18) | Diarrhoea, subjects n (%) (Full analysis set, N = 18) | Dry mouth, subjects n (%) (Full analysis set, N = 18) | Erythema of eyelid, subjects n (%) (Full analysis set, N = 18) | Gastritis, subjects n (%) (Full analysis set, N = 18) | Hallucination, subjects n (%) (Full analysis set, N = 18) | Hyperglycaemia, subjects n (%) (Full analysis set, N = 18) | Incorrect dose administered, subjects n (%) (Full analysis set, N = 18) | Inflammatory marker increased, subjects n (%) (Full analysis set, N = 18) | Influenza, subjects n (%) (Full analysis set, N = 18)
14: AE action taken with study drug: Dose Reduced, events m (Full analysis set, N = 18)
15 (83%) n (%): AE causality: Possibly Related, subjects n (%) (Full analysis set, N = 18)
71: Any AE, events m (Full analysis set, N = 18)
4: AE causality: Probably Related, events m (Full analysis set, N = 18) | Headache, events m (Full analysis set, N = 18)
4 (22%) n (%): AE action taken with study drug: Dose Reduced, subjects n (%) (Full analysis set, N = 18)
7 (39%) n (%): Gastrointestinal disorders (system organ class), subjects n (%) (Full analysis set, N = 18)
6: Injury, poisoning and procedural complications (system organ class), events m (Full analysis set, N = 18)
5 (28%) n (%): AE action taken with study drug: Not Applicable, subjects n (%) (Full analysis set, N = 18)
46: AE action taken with study drug: Dose Not Changed, events m (Full analysis set, N = 18)
10 (56%) n (%): AE severity: Moderate, subjects n (%) (Full analysis set, N = 18)
14 (78%) n (%): AE severity: Mild, subjects n (%) (Full analysis set, N = 18)
about 11%: Number of adverse events per patient, higher than placebo group by (71/18 vs 32/9)
16 (89%) n (%): Any AE, subjects n (%) (Full analysis set, N = 18)
43: AE causality: Possibly Related, events m (Full analysis set, N = 18)
45: AE severity: Mild, events m (Full analysis set, N = 18)
26: AE severity: Moderate, events m (Full analysis set, N = 18)
2 (11%) n (%): Back pain, subjects n (%) (Full analysis set, N = 18) | Dissociation, subjects n (%) (Full analysis set, N = 18) | Dizziness, subjects n (%) (Full analysis set, N = 18) | Dyskinesia, subjects n (%) (Full analysis set, N = 18) | Ear and labyrinth disorders (system organ class), subjects n (%) (Full analysis set, N = 18) | Eye disorders (system organ class), subjects n (%) (Full analysis set, N = 18) | Fall, subjects n (%) (Full analysis set, N = 18) | Fatigue, subjects n (%) (Full analysis set, N = 18) | Insomnia, subjects n (%) (Full analysis set, N = 18)
3 (17%) n (%): AE causality: Probably Related, subjects n (%) (Full analysis set, N = 18) | General disorders and administration site conditions (system organ class), subjects n (%) (Full analysis set, N = 18) | Headache, subjects n (%) (Full analysis set, N = 18) | Injury, poisoning and procedural complications (system organ class), subjects n (%) (Full analysis set, N = 18)
10: Gastrointestinal disorders (system organ class), events m (Full analysis set, N = 18)
11: AE action taken with study drug: Not Applicable, events m (Full analysis set, N = 18)
11%: Proportion of patients experiencing an adverse event, higher than placebo group by (89% vs 78%)
1: Apathy, events m (Full analysis set, N = 18) | Arthralgia, events m (Full analysis set, N = 18) | Binocular eye movement disorder, events m (Full analysis set, N = 18) | Cardiac disorders (system organ class), events m (Full analysis set, N = 18) | Condition aggravated, events m (Full analysis set, N = 18) | Diarrhoea, events m (Full analysis set, N = 18) | Dry mouth, events m (Full analysis set, N = 18) | Erythema of eyelid, events m (Full analysis set, N = 18) | Gastritis, events m (Full analysis set, N = 18) | Hallucination, events m (Full analysis set, N = 18) | Hyperglycaemia, events m (Full analysis set, N = 18) | Incorrect dose administered, events m (Full analysis set, N = 18) | Inflammatory marker increased, events m (Full analysis set, N = 18) | Influenza, events m (Full analysis set, N = 18)
12 (67%) n (%): AE action taken with study drug: Dose Not Changed, subjects n (%) (Full analysis set, N = 18)
